The source gives many values for each of these; only a part stands here.
Columns and labels:
Rat [1] = assay: concentration in brain after dosing; settings: 20 min; dosed: 2-Methyltetrahydrofuran; 400 mg/kg; oral; Female; Harlan Sprague Dawley
Rat [2] = assay: concentration in plasma after dosing; settings: 0.25 h; dosed: 2-Methyltetrahydrofuran; 30 mg/kg; oral; Female; F344
Rat [3] = assay: concentration in brain after dosing; settings: 0.75 h; dosed: 2-Methyltetrahydrofuran; 30 mg/kg; oral; Female; F344
Rat [4] = assay: concentration in plasma after dosing; settings: 8 h; dosed: 2-Methyltetrahydrofuran; 400 mg/kg; oral; Male; F344
Rat [5] = assay: concentration in plasma after dosing; settings: 2 min; dosed: 2-Methyltetrahydrofuran; 10 mg/kg; iv; Female; F344
Rat [6] = assay: concentration in plasma after dosing; settings: 0.5 h; dosed: 2-Methyltetrahydrofuran; 10 mg/kg; oral; Female; F344
Rat [7] = assay: concentration in plasma after dosing; settings: 0.75 h; dosed: 2-Methyltetrahydrofuran; 10 mg/kg; oral; Female; F344
Rat [8] = assay: concentration in brain after dosing; settings: 0.5 h; dosed: 2-Methyltetrahydrofuran; 10 mg/kg; oral; Male; F344
Rat [9] = assay: concentration in brain after dosing; settings: 2 min; dosed: 2-Methyltetrahydrofuran; 30 mg/kg; oral; Male; F344
Rat [10] = assay: concentration in brain after dosing; settings: 2 h; dosed: 2-Methyltetrahydrofuran; 10 mg/kg; iv; Female; F344
Rat [11] = assay: concentration in brain after dosing; settings: 20 min; dosed: 2-Methyltetrahydrofuran; 100 mg/kg; oral; Female; Harlan Sprague Dawley
Rat [12] = assay: concentration in plasma after dosing; settings: 20 min; dosed: 2-Methyltetrahydrofuran; 100 mg/kg; oral; Female; Harlan Sprague Dawley
Rat [13] = assay: concentration in brain after dosing; settings: 0.5 h; dosed: 2-Methyltetrahydrofuran; 30 mg/kg; oral; Male; F344
Rat [14] = assay: concentration in plasma after dosing; settings: 20 min; dosed: 2-Methyltetrahydrofuran; 10 mg/kg; oral; Female; F344
Rat [15] = assay: concentration in brain after dosing; settings: 0.5 h; dosed: 2-Methyltetrahydrofuran; 30 mg/kg; oral; Female; F344
Rat [16] = assay: concentration in brain after dosing; settings: 12 h; dosed: 2-Methyltetrahydrofuran; 400 mg/kg; oral; Female; F344
Rat [17] = assay: concentration in plasma after dosing; settings: dosed: Bromochloroacetic acid, 80 mg/kg, iv, Female, Harlan Sprague-Dawley
Rat [18] = assay: concentration in plasma after dosing; settings: dosed: Bromochloroacetic acid, 100 mg/kg, oral, Female, F344
Rat [19] = assay: concentration in plasma after dosing; settings: 10 min; dosed: Bromochloroacetic acid; 10 mg/kg; iv; Male; F344
Rat [20] = assay: concentration in plasma after dosing; settings: 48 h; dosed: Fluorotelomer alcohol 8+2; 160 mg/kg; oral; Female; Harlan Sprague Dawley
Rat [21] = assay: concentration in plasma after dosing; settings: dosed: Fluorotelomer alcohol 8+2, 80 mg/kg, oral, Female, Harlan Sprague Dawley
Rat [22] = assay: concentration in plasma after dosing; settings: 9 h; dosed: Fluorotelomer alcohol 8+2; 160 mg/kg; oral; Female; Harlan Sprague Dawley
Rat [23] = assay: concentration in plasma after dosing; settings: dosed: Fluorotelomer alcohol 8+2, 160 mg/kg, oral, Female, Harlan Sprague Dawley
Rat [24] = assay: concentration in plasma after dosing; settings: 2 h; dosed: Formamide; 30 mg/kg; iv; Female; F344
Rat [25] = assay: concentration in plasma after dosing; settings: dosed: Formamide, 36 mg/kg, oral, Female, Harlan Sprague Dawley
Rat [26] = assay: concentration in plasma after dosing; settings: 2 h; dosed: Formamide; 30 mg/kg; iv; Female; F344; remark: listed apart in the source
Rat [27] = assay: concentration in plasma after dosing; settings: dosed: Formamide, 300 mg/kg, oral, Female, Harlan Sprague Dawley
Rat [28] = assay: concentration in plasma after dosing; settings: dosed: Formamide, 30 mg/kg, iv, Female, F344
Rat [29] = assay: concentration in plasma after dosing; settings: dosed: Formamide, 30 mg/kg, iv, Female, F344; remark: listed apart in the source
Rat [30] = assay: concentration in plasma after dosing; settings: 2 h; dosed: Formamide; 30 mg/kg; iv; Female; F344; remark: listed apart in the source
Rat [31] = assay: concentration in plasma after dosing; settings: 40 min; dosed: Pyridine; 200 mg/kg; oral; Female; Harlan Sprague Dawley
Rat [32] = assay: concentration in plasma after dosing; settings: dosed: Pyridine, 5 mg/kg, oral, Female, F344
Rat [33] = assay: concentration in plasma after dosing; settings: 4 h; dosed: Pyridine; 50 mg/kg; oral; Female; F344
Rat [34] = assay: concentration in plasma after dosing; settings: dosed: Pyridine, 25 mg/kg, oral, Female, F344
Rat [35] = assay: concentration in plasma after dosing; settings: 2 h; dosed: Pyridine; 200 mg/kg; oral; Female; F344
Rat [36] = assay: concentration in plasma after dosing; settings: 10 min; dosed: Pyridine; 10 mg/kg; oral; Male; Harlan Sprague Dawley
Rat [37] = assay: concentration in plasma after dosing; settings: 2 min; dosed: Pyridine; 200 mg/kg; oral; Female; Harlan Sprague Dawley
Rat [38] = assay: concentration in plasma after dosing; settings: 2 min; dosed: Pyridine; 10 mg/kg; iv; Female; F344

CC1CCCO1 (stereo not drawn) [2-Methyltetrahydrofuran]
Settings	concentration in brain [µg/g]	concentration in plasma [ng/mL]
Rat [1]	144	–
Rat [2]	–	22700
Rat [3]	8.04	–
Rat [4]	–	62900
Rat [5]	–	19800
Rat [6]	–	3400
Rat [7]	–	1430
Rat [8]	2.07	–
Rat [9]	3.13	–
Rat [10]	0.0774	–
Rat [11]	45.3	–
Rat [12]	–	47900
Rat [13]	13.3	–
Rat [14]	–	2870
Rat [15]	9.19	–
Rat [16]	19.7	–

O=C(O)C(Cl)Br (stereo not drawn) [Bromochloroacetic acid]
concentration in plasma [ng/mL]
Settings	1.5 h	2 h	2 min	3 h
Rat [17]	–	3190	–	696
Rat [18]	19800	–	3960	–

Settings	concentration in plasma [ng/mL]
Rat [19]	4560

OCCC(F)(F)C(F)(F)C(F)(F)C(F)(F)C(F)(F)C(F)(F)C(F)(F)C(F)(F)F [Fluorotelomer alcohol 8+2]
Settings	concentration in plasma [ng/mL]
Rat [20]	3.89
Rat [22]	551

concentration in plasma [ng/mL]
Settings	0.25 h	0.5 h	9 h	24 h
Rat [21]	301	–	–	11
Rat [23]	–	726	829	–

NC=O [Formamide]
Settings	concentration in plasma [ng/mL]
Rat [24]	34600
Rat [26]	41000
Rat [30]	41400

Settings	concentration in plasma [ng/mL]
Rat [25], 1.5 h	41800
Rat [25], 30 h	6900
Rat [27], 2 h	252000
Rat [27], 5 min	55500
Rat [28], 8 h	24900
Rat [28], 12 h	19100
Rat [29], 1 h	46000
Rat [29], 3 h	34200

c1ccncc1 [Pyridine]
Settings	concentration in plasma [ng/mL]
Rat [31]	104000
Rat [33]	16300
Rat [35]	56200
Rat [36]	8100
Rat [37]	105000
Rat [38]	7280

concentration in plasma [ng/mL]
Settings	0.5 h	4 h	5 min	6 h
Rat [32]	3040	–	–	1900
Rat [34]	–	20800	7470	–

— EPA's CvTdb concentration-time database
